{"sequences": {"note": "The chains behind the UniProt entries cited, without tags or fusion partners. Where a name states a change or a piece, a line headed by the entry shows the natural chain unless it says otherwise.", "UniProt Q8IYW5": "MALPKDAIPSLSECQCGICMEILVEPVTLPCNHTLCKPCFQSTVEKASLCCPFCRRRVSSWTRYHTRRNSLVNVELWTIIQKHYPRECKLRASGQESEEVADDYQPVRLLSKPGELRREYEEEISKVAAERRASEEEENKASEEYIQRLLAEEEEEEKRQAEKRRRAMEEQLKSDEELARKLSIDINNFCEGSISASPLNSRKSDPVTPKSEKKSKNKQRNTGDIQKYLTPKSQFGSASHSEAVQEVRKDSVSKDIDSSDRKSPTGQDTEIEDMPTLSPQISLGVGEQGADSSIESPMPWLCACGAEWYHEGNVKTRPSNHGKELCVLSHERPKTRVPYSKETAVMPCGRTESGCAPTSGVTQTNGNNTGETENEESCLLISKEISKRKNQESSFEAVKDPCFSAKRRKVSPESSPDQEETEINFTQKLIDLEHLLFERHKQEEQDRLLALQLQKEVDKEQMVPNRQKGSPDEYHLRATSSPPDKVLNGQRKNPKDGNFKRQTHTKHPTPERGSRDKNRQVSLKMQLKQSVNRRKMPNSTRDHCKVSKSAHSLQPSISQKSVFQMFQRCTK", "UniProt P61088": "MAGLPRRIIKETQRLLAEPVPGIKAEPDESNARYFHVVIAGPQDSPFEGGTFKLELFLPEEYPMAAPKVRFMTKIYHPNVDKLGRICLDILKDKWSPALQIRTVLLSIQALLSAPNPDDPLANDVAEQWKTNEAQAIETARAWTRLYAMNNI", "UniProt Q9BV68": "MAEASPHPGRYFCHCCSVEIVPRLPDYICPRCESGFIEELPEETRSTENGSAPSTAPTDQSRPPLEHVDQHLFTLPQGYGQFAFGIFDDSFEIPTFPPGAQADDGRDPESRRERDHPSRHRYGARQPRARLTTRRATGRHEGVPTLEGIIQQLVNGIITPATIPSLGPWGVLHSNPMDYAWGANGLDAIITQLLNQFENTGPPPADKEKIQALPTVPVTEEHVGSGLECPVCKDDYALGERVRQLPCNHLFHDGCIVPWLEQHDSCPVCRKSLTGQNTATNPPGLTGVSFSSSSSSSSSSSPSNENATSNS"}, "source": "paper PMC6411902", "key": {"[1]": {"target": "HA-RNF168 (human) (UniProt Q8IYW5)", "experiment": "co-IP; epitope-tagged proteins co-expressed in HEK293T cells; total lysates harvested 48 h after transfection, immunoprecipitation (anti-FLAG beads in Figure 2B; indicated antibodies in the other panels) and immunoblotting"}, "[2]": {"target": "T1, FLAG-RNF8 (UniProt O76064)", "T1 sequence": "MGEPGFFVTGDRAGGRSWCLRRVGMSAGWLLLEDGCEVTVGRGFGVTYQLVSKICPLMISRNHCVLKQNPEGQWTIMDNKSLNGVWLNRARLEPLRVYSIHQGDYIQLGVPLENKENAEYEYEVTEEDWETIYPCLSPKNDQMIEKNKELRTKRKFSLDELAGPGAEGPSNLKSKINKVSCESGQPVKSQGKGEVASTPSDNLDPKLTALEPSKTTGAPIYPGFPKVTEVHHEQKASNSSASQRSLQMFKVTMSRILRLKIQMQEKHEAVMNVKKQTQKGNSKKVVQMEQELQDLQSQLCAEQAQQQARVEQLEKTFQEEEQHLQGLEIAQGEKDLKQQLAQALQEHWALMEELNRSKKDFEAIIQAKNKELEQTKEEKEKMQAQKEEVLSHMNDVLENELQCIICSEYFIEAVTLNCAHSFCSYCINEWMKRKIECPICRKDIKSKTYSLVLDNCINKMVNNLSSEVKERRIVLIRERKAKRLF", "experiment": "co-IP; epitope-tagged proteins co-expressed in HEK293T cells; total lysates harvested 48 h after transfection, immunoprecipitation (anti-FLAG beads in Figure 2B; indicated antibodies in the other panels) and immunoblotting"}, "[3]": {"target": "FLAG-UBC13 (UniProt P61088)", "experiment": "co-IP; HEK293T cells co-expressing HA-RNF168, FLAG-UBC13 and GFP-RNF126 or GFP-RNF126(CC229/232AA); mock or bleomycin treatment for 1 h; lysates extracted with SDS-containing lysis buffer and boiled for 10 min; immunoprecipitation with anti-FLAG beads"}, "[4]": {"target": "GST-RNF126 (human) (UniProt Q9BV68)", "experiment": "pull-down; bacterially-produced GST-RNF126 as bait; FLAG-RNF168 in the total cell lysate of transiently transfected HEK293T cells; only the target purified"}, "[5]": {"target": "RNF126 (ring finger protein 126), endogenous (human (endogenous in HEK293T)) (UniProt Q9BV68)", "experiment": "co-IP; endogenous proteins; total lysates of HEK293T cells immunoprecipitated with an anti-RNF126 antibody, immunoblotting"}, "[6]": {"target": "HA-RNF126 (human) (UniProt Q9BV68)", "experiment": "co-IP; epitope-tagged proteins co-expressed in HEK293T cells; total lysates harvested 48 h after transfection, immunoprecipitation (anti-FLAG beads in Figure 2B; indicated antibodies in the other panels) and immunoblotting"}}, "note": "Results are given in words; binding and its absence hold for the method and conditions named. Binding seen in cells or lysates may run through a third protein. Some results given as binding are weak or reduced against the parent protein; the word gives no strength. For some assays here: Sequences can lack the tags named with a protein.", "data": [{"molecule": "GFP-RNF126(1–100) (from UniProt Q9BV68 1-100) (domain or fragment)", "values": [{"measurement": "binding", "setting": "[1]", "result": "binds"}, {"measurement": "binding", "setting": "[2]", "result": "binds"}]}, {"molecule": "HA-RNF168 (from UniProt Q8IYW5 1-571)", "values": [{"measurement": "binding", "setting": "[3]", "result": "binds"}]}, {"molecule": "GFP-RNF126(201–311) (from UniProt Q9BV68 201-311) (domain or fragment)", "values": [{"measurement": "binding", "setting": "[1]", "result": "no binding"}, {"measurement": "binding", "setting": "[2]", "result": "no binding"}]}, {"molecule": "FLAG-RNF168 (from UniProt Q8IYW5 1-571)", "values": [{"measurement": "binding", "setting": "[4]", "result": "binds"}]}, {"molecule": "RNF168, endogenous (from UniProt Q8IYW5 1-571)", "values": [{"measurement": "binding", "setting": "[5]", "result": "binds"}]}, {"molecule": "GFP-RNF126(101–200) (from UniProt Q9BV68 101-200) (domain or fragment)", "values": [{"measurement": "binding", "setting": "[1]", "result": "no binding"}, {"measurement": "binding", "setting": "[2]", "result": "no binding"}]}, {"molecule": "RNF8 (ring finger protein 8), endogenous (protein, UniProt O76064 1-485) MGEPGFFVTGDRAGGRSWCLRRVGMSAGWLLLEDGCEVTVGRGFGVTYQLVSKICPLMISRNHCVLKQNPEGQWTIMDNKSLNGVWLNRARLEPLRVYSIHQGDYIQLGVPLENKENAEYEYEVTEEDWETIYPCLSPKNDQMIEKNKELRTKRKFSLDELAGPGAEGPSNLKSKINKVSCESGQPVKSQGKGEVASTPSDNLDPKLTALEPSKTTGAPIYPGFPKVTEVHHEQKASNSSASQRSLQMFKVTMSRILRLKIQMQEKHEAVMNVKKQTQKGNSKKVVQMEQELQDLQSQLCAEQAQQQARVEQLEKTFQEEEQHLQGLEIAQGEKDLKQQLAQALQEHWALMEELNRSKKDFEAIIQAKNKELEQTKEEKEKMQAQKEEVLSHMNDVLENELQCIICSEYFIEAVTLNCAHSFCSYCINEWMKRKIECPICRKDIKSKTYSLVLDNCINKMVNNLSSEVKERRIVLIRERKAKRLF", "values": [{"measurement": "binding", "setting": "[5]", "result": "binds"}]}, {"molecule": "GFP-RNF8 N-terminus (aa 1–141) (domain or fragment, UniProt O76064 1-141) MGEPGFFVTGDRAGGRSWCLRRVGMSAGWLLLEDGCEVTVGRGFGVTYQLVSKICPLMISRNHCVLKQNPEGQWTIMDNKSLNGVWLNRARLEPLRVYSIHQGDYIQLGVPLENKENAEYEYEVTEEDWETIYPCLSPKND", "values": [{"measurement": "binding", "setting": "[6]", "result": "binds"}]}]}
